{
  "source": "the RNAGym collection of RNA variant scans (doi:10.1073/pnas.2313332121)",
  "parents": {"B1": {"name": "TPR 5TU (parent)", "chain": "GGAUCUUCUCGAUCUAACAAAAAAGACAAAUCUGCCACAAAGCUUGAGAGCAUCUUCGGAUGCAGAGGCGGCAGCCUUCGGUGGCGCGAUAGCGCCAACGUUCUCAACUAUGACACGCAAAACGCGUGCUCCGUUGAAUGGAGUUUAUCAUG"}},
  "note": "This sample is rich in variants without activity.",
  "data": [
    {"variants_of": "B1", "experiment": "polymerase ribozyme fitness, log enrichment relative to wild type (log ratio); higher = more active; in vitro selection for triplet polymerase activity", "outline": "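Mutant libraries of both subunits of a heterodimeric triplet polymerase ribozyme were PCR-built, transcribed, and selected once in triplicate, with frozen incubation at −7 °C and capture of gel-excised extended constructs on streptavidin beads before RT-PCR. Illumina sequencing of input and output libraries was filtered to genotypes with ≥10 input reads and ≥1 read per output. Fitness is the logarithm of genotype enrichment over wild-type enrichment, using inverse-variance-weighted replicate averages. The logarithm is base 2.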", "values": [
      {"variant": "G34C C51G C57U G83C", "polymerase ribozyme fitness (log ratio)": "≤ -4.2"},
      {"variant": "C35A A91G C105U", "polymerase ribozyme fitness (log ratio)": -4.17},
      {"variant": "G34U C51U U61A G81U A91U", "polymerase ribozyme fitness (log ratio)": "≤ -4.2"},
      {"variant": "U33G A39G G62U G92A A122U U134A", "polymerase ribozyme fitness (log ratio)": "≤ -4.2"},
      {"variant": "U33G G88U C125U G140A", "polymerase ribozyme fitness (log ratio)": "≤ -4.2"},
      {"variant": "U33G U77G U104G", "polymerase ribozyme fitness (log ratio)": "≤ -4.2"},
      {"variant": "U33G U53A G152U", "polymerase ribozyme fitness (log ratio)": "≤ -4.2"},
      {"variant": "C35A C95U U127A", "polymerase ribozyme fitness (log ratio)": "≤ -4.2"},
      {"variant": "U33A A49U G94U A119U U148A", "polymerase ribozyme fitness (log ratio)": "≤ -4.2"},
      {"variant": "U33G G84A C87G C96G", "polymerase ribozyme fitness (log ratio)": "≤ -4.2"},
      {"variant": "U33A G83A C95U U151C", "polymerase ribozyme fitness (log ratio)": "≤ -4.2"},
      {"variant": "U33G C38A U53A U55A C95U A106U G126C", "polymerase ribozyme fitness (log ratio)": "≤ -4.2"},
      {"variant": "C35A U45A U101A", "polymerase ribozyme fitness (log ratio)": -4.13},
      {"variant": "C35A G92C C105G G143C A147U", "polymerase ribozyme fitness (log ratio)": "≤ -4.2"},
      {"variant": "U33A U56A C87G U102A U135C", "polymerase ribozyme fitness (log ratio)": "≤ -4.2"},
      {"variant": "U33G U53A C63A C118A", "polymerase ribozyme fitness (log ratio)": "≤ -4.2"},
      {"variant": "G34U C76G C79U G94A C96G A97U C103A A107U A120U U145A C149U", "polymerase ribozyme fitness (log ratio)": "≤ -4.2"},
      {"variant": "C32U G59A C93U U104G U148C", "polymerase ribozyme fitness (log ratio)": "≤ -4.2"},
      {"variant": "C35A G42C G84U C116G", "polymerase ribozyme fitness (log ratio)": "≤ -4.2"},
      {"variant": "G34U A47G C57G G68A U102A", "polymerase ribozyme fitness (log ratio)": "≤ -4.2"},
      {"variant": "U33G A39C A52U G70U U111G C116G A121U U146G", "polymerase ribozyme fitness (log ratio)": "≤ -4.2"},
      {"variant": "U33A G59A A106C A113U G124U", "polymerase ribozyme fitness (log ratio)": "≤ -4.2"},
      {"variant": "G34A A60G G140U C149U", "polymerase ribozyme fitness (log ratio)": "≤ -4.2"},
      {"variant": "C32U U102G G136A", "polymerase ribozyme fitness (log ratio)": "≤ -4.2"},
      {"variant": "G34A C93A A107C", "polymerase ribozyme fitness (log ratio)": "≤ -4.2"},
      {"variant": "U33A C75G C85A G143U", "polymerase ribozyme fitness (log ratio)": "≤ -4.2"},
      {"variant": "C32U U44G C54U C85A A113U C116G", "polymerase ribozyme fitness (log ratio)": "≤ -4.2"},
      {"variant": "C32U C85G", "polymerase ribozyme fitness (log ratio)": "≤ -4.2"},
      {"variant": "C35A A39U C96A", "polymerase ribozyme fitness (log ratio)": "≤ -4.2"},
      {"variant": "G34U A40U G59C A60G C95U C131U U144C", "polymerase ribozyme fitness (log ratio)": "≤ -4.2"},
      {"variant": "C32U C87G A142U", "polymerase ribozyme fitness (log ratio)": "≤ -4.2"},
      {"variant": "C32U U44A C72G C85U G86U U104G A110G", "polymerase ribozyme fitness (log ratio)": "≤ -4.2"},
      {"variant": "G34U G42U C57G C87A G100U A110C U135A G141U", "polymerase ribozyme fitness (log ratio)": "≤ -4.2"},
      {"variant": "G34U G42U C76U G92U C118G", "polymerase ribozyme fitness (log ratio)": "≤ -4.2"},
      {"variant": "C35A C75G C95G A98U A113G U127G A138C", "polymerase ribozyme fitness (log ratio)": "≤ -4.2"},
      {"variant": "G34U C76G U82A C132A A147U", "polymerase ribozyme fitness (log ratio)": "≤ -4.2"},
      {"variant": "C35A G46A G100C G133C", "polymerase ribozyme fitness (log ratio)": "≤ -4.2"},
      {"variant": "G34A U55A G70U G80U G86A", "polymerase ribozyme fitness (log ratio)": "≤ -4.2"},
      {"variant": "C35A C36G G65C G86C U144G", "polymerase ribozyme fitness (log ratio)": "≤ -4.2"},
      {"variant": "G34A U101A", "polymerase ribozyme fitness (log ratio)": -2.82},
      {"variant": "U33C C51U G59C C63A A120C C125G U134G", "polymerase ribozyme fitness (log ratio)": "≤ -4.2"},
      {"variant": "U33A C43A C76U G92A G117U", "polymerase ribozyme fitness (log ratio)": -3.86},
      {"variant": "G34A C35A G83C A106U G133U A137G G141U", "polymerase ribozyme fitness (log ratio)": "≤ -4.2"},
      {"variant": "C35A A107U C108U", "polymerase ribozyme fitness (log ratio)": -3.61},
      {"variant": "U33G C36U A49U G70U G92C", "polymerase ribozyme fitness (log ratio)": "≤ -4.2"},
      {"variant": "U33A C38G A52U C87G G136A", "polymerase ribozyme fitness (log ratio)": "≤ -4.2"},
      {"variant": "C32U G48A G84C U90A", "polymerase ribozyme fitness (log ratio)": "≤ -4.2"},
      {"variant": "C35A A60C U102G", "polymerase ribozyme fitness (log ratio)": "≤ -4.2"},
      {"variant": "C32U C43G U55A C76A C85U G92U C132U", "polymerase ribozyme fitness (log ratio)": "≤ -4.2"},
      {"variant": "C35A A41C C57U C85G", "polymerase ribozyme fitness (log ratio)": "≤ -4.2"},
      {"variant": "C32U C69A C93A C96A C99U A147U", "polymerase ribozyme fitness (log ratio)": "≤ -4.2"},
      {"variant": "U33C A60G G71A C85G G88U U148G", "polymerase ribozyme fitness (log ratio)": "≤ -4.2"},
      {"variant": "C35A A41G G143C A147C", "polymerase ribozyme fitness (log ratio)": "≤ -4.2"},
      {"variant": "G34A C35A U56G G71U G80U G83A A98U", "polymerase ribozyme fitness (log ratio)": "≤ -4.2"},
      {"variant": "G34U A41C G94A U134A A138C", "polymerase ribozyme fitness (log ratio)": "≤ -4.2"},
      {"variant": "U33G G70A U78A A89U G94U C131G", "polymerase ribozyme fitness (log ratio)": "≤ -4.2"},
      {"variant": "C32U G59A", "polymerase ribozyme fitness (log ratio)": -1.99},
      {"variant": "G34C A89C C93U U135C U146A", "polymerase ribozyme fitness (log ratio)": "≤ -4.2"},
      {"variant": "U33A G74C G88A A91G G141A", "polymerase ribozyme fitness (log ratio)": "≤ -4.2"},
      {"variant": "U33A U53A C87A C125U", "polymerase ribozyme fitness (log ratio)": "≤ -4.2"},
      {"variant": "U33G C43U A49C U77G A91U U101A C105G", "polymerase ribozyme fitness (log ratio)": "≤ -4.2"},
      {"variant": "G34U A37G G50U A89C G92A A138U", "polymerase ribozyme fitness (log ratio)": "≤ -4.2"},
      {"variant": "U33G C79A G83C U148A", "polymerase ribozyme fitness (log ratio)": "≤ -4.2"},
      {"variant": "U33C A64U U90C G92U G94A U139A", "polymerase ribozyme fitness (log ratio)": "≤ -4.2"},
      {"variant": "C35A C57A A60U C76A C79U A89C", "polymerase ribozyme fitness (log ratio)": "≤ -4.2"},
      {"variant": "U33G C76U A107C C131A", "polymerase ribozyme fitness (log ratio)": "≤ -4.2"},
      {"variant": "C35A G50A U55G C87A C105U G117U A122U C149A", "polymerase ribozyme fitness (log ratio)": "≤ -4.2"},
      {"variant": "C35A A47C U61A U77A C93U", "polymerase ribozyme fitness (log ratio)": "≤ -4.2"},
      {"variant": "C35A A41U C95U C118U A120U U146A", "polymerase ribozyme fitness (log ratio)": "≤ -4.2"},
      {"variant": "C32U U61A C93U G128U", "polymerase ribozyme fitness (log ratio)": "≤ -4.2"},
      {"variant": "U33G C54A G83A C85G C116U G140U", "polymerase ribozyme fitness (log ratio)": "≤ -4.2"},
      {"variant": "G34U A52C U53A C85U A97U C99G C114A", "polymerase ribozyme fitness (log ratio)": "≤ -4.2"},
      {"variant": "G34A C87A C123U G133U U148A", "polymerase ribozyme fitness (log ratio)": "≤ -4.2"},
      {"variant": "C35A G48U U139A", "polymerase ribozyme fitness (log ratio)": "≤ -4.2"},
      {"variant": "U33A G58C G92A G136U", "polymerase ribozyme fitness (log ratio)": "≤ -4.2"},
      {"variant": "C35A G88C A97U A115U G124C G140A", "polymerase ribozyme fitness (log ratio)": "≤ -4.2"},
      {"variant": "U33G A91G", "polymerase ribozyme fitness (log ratio)": "≤ -4.2"},
      {"variant": "U33A U102A A106U", "polymerase ribozyme fitness (log ratio)": "≤ -4.2"},
      {"variant": "G34A U55A G65A C76U C85U G117A C125U G126A U134A", "polymerase ribozyme fitness (log ratio)": "≤ -4.2"},
      {"variant": "C35A G83A G84U C85A A115G", "polymerase ribozyme fitness (log ratio)": "≤ -4.2"},
      {"variant": "U33G C99G A107G G141A", "polymerase ribozyme fitness (log ratio)": "≤ -4.2"},
      {"variant": "U33C C76G C93A A137U", "polymerase ribozyme fitness (log ratio)": "≤ -4.2"},
      {"variant": "C32U G59U G81A G126U G141U A142U", "polymerase ribozyme fitness (log ratio)": "≤ -4.2"},
      {"variant": "U33G C76U G88C", "polymerase ribozyme fitness (log ratio)": "≤ -4.2"}
    ]}
  ]
}
